Measured values as given in PubChem BioAssay AID1454 (National Center for Advancing Translational Sciences (NCATS), 2008).
Among all 130,000 compounds or so, about 550 (0.42%) were called active. The shares of active, inactive and inconclusive entries below differ from those in the screen. Calls follow the shape of the dose curve; as a rule, active = well fitted inhibition curve with a large enough effect; inconclusive = small, poorly fitted or top-dose-only effect, or effect the other way; inactive = flat fitted curve, though single readings scatter. Potencies of inconclusive entries are left out as doubtful fits.
Potency is read from the fitted curve at half-maximal effect; tags tell the direction and shape of the fitted curve.

Assay: qHTS Assay for Inhibitors of the ERK Signaling Pathway using a Homogeneous Screening Assay; Stimulation with EGF; also: nearly all actives have a fitted effect of over 55% in size
Details: HEK293-V1b, EGF-stimulated phospho-ERK AlphaScreen
Procedure, shortened: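 V1b-HEK293, 1% FBS o/n; cpd 30 min 37C; EGF 25 nM final, 5 min; lyse 10 min; AlphaScreen beads 5 h RT. Normalized DMSO basal vs EGF max; Hill AC50.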
With `Cc1cc(Cl)n2c(nc3cc(F)c(F)cc32)c1C#N` the Potency was inconclusive [inhibitor, single point]. For `N#Cc1ccc(CN2CC[C@@]3(CCCN(C(=O)c4cnccn4)C3)C2)cc1`, the Potency was “inactive”. With `COc1cc(CNc2ncnc3c2[nH]c2ccc(C)cc23)cc(OC)c1` the Potency was inconclusive [inhibitor, single point]. In the case of `Cc1ccc2nc(COc3ccc(N(C)S(=O)(=O)c4ccccc4)cc3)cc(=O)n2c1`, the Potency was inconclusive [inhibitor, single point]. For `COc1ccc(N=c2cc(-c3ccc(O)cc3)oc3ccccc23)cc1`, the Potency was inconclusive [inhibitor, single point]. With `Cc1ccc(C)c(N2CCN(C(c3ccc(N(C)C)cc3)c3nnnn3C(C)(C)C)CC2)c1` (stereo not drawn) the Potency was inconclusive [inhibitor, partial curve]. In the case of `CCN(CC)c1ccc(/C=C2/C(=O)c3ccc(C(=O)O)cc3C2=O)cc1`, the Potency was inconclusive [inhibitor, partial curve]. In the case of `O=C(/C(=C/O)N=Nc1ccccc1)c1cccs1`, the Potency was inconclusive [inhibitor, single point]. In the case of `COc1cc(O)c(C(C)=O)c(OC)c1`, the Potency was inconclusive [inhibitor, single point]. In the case of `O=C(OC(C(=O)NCc1ccc2c(c1)OCO2)c1ccncc1)c1ccc(Cl)nc1` (stereo not drawn), the Potency was inconclusive [inhibitor, partial curve]. In the case of `N#CCCn1c(=O)c(-c2cc(F)cc(F)c2)nc2cnc(Oc3cccc(Cl)c3)nc21`, the Potency was inconclusive [inhibitor, partial curve]. With `CC(=O)C1=C(O)C(=O)N(Cc2cccnc2)C1c1ccc(Cl)cc1Cl` (stereo not drawn) the Potency was “inactive”. For `CCOC(=O)c1sc2nc(CSc3ccccc3)nc(N3CCCN(C)CC3)c2c1C`, the Potency was inconclusive [inhibitor, single point]. With `Cc1ccc(NC(=O)c2cnc(N3CCN(c4ccccn4)CC3)c3ccccc23)c(Br)c1` the Potency was inconclusive [inhibitor, full curve]. In the case of `O=C(C1CCCCC1)N1CCN(c2nc(-c3ccc(F)cc3)cs2)CC1`, the Potency was inconclusive [inhibitor, single point]. For `Cc1nnc(SCc2nc3scc(-c4ccccc4)c3c(=O)[nH]2)s1`, the Potency was “inactive”. With `Cc1ccc(-c2csc(=Nc3cccnc3)n2CCCn2ccnc2)cc1C` the Potency was active: 28.2 µM. For `CC(C)(C)c1cc(C(=O)/C=C/c2ccc(C(=O)O)cc2)cc(C(C)(C)C)c1`, the Potency was inconclusive [inhibitor, single point].
